Results reported in PubChem BioAssay AID651820 (National Center for Advancing Translational Sciences (NCATS), 2012).
Values joined by “and” are separate entries in the source; they are usually repeats but may differ in a detail not shown here. Equal values may be shown once. The whole screen tested about 340,000 compounds, of which about 12,000 (3.5%) were called active. Inconclusive results, whose numbers are uncertain, are shown with a selection of clear calls. Calls come from the whole dose curve; as a rule, active = well fitted inhibition curve with a large enough effect; inconclusive = small, poorly fitted or top-dose-only effect, or another doubt; inactive = no such curve, though single readings can be large or run the other way. Where the call is inconclusive, the potency comes from a doubtful curve fit.

Test: qHTS Assay for Inhibitors of Hepatitis C Virus (HCV)
Conditions: Huh7.5.1 HCVcc-Cre (HCVcc is cell-culture hepatitis C virus) infection, luciferase reporter, 44 h; activity change, negative = inhibition: at 41.8 µM (top of the series) unless noted
How it was run: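 A cell-based infection assay in which seeded cells (1,000 per well) receive test compound after 4 h, are inoculated with HCVcc-Cre at approximately 0.5 moi, and are incubated 44 h before luminescence detection.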
% is set by controls: 0 for no effect and ±100 for the full control effect; potency is the fitted concentration of half-maximal effect; tags give direction and shape of the fitted curve.

Row | Compound | Potency | activity change, negative = inhibition
1 | CCOc1ccc(-c2nnn(CC(=O)N3CCN(c4ccc(OC)cc4)CC3)n2)cc1OCC | inconclusive: 1 µM [inhibitor, full curve] | 
2 | NC(=O)c1ccc(/C=N/O)[n+](Cc2ccccc2)c1 |  | inactive: 12.1%
3 | COc1ccc2cc(CN(CC3CCCO3)C(=O)Nc3ccccc3OC)c(=O)[nH]c2c1 (stereo unspecified) | inconclusive: 2.82 µM [inhibitor, partial curve] | 
4 | COc1cc(SC)ccc1C(=O)OCC(=O)NCC(C)C |  | inactive: 12.2%
5 | O=C(O)c1cccc(NC(=S)N/N=C/c2ccccc2OCc2cccc(Br)c2)c1 | inconclusive: 7.94 µM [inhibitor, partial curve, poor fit] | 
6 | Cc1ccc(NC(=O)CSC2=C(C#N)C(c3ccco3)C3=C(CC(C)(C)CC3=O)N2)cc1 (stereo unspecified) | inconclusive: 10 µM [inhibitor, partial curve] | 
7 | Cn1cc([N+](=O)[O-])c(C(=O)Nc2ccc(Br)cn2)n1 | active: 11.2 µM | 
8 | O=C(c1ccccc1)N1CCN(c2nc3ccc([N+](=O)[O-])cc3s2)CC1 | inconclusive: 15.8 µM [inhibitor, single point] | 
9 | COc1ccc(C(=O)N/N=C\C(C)=C\c2ccccc2)cc1OC | inconclusive: 11.2 µM [inhibitor, single point] | 
10 | COCCn1c(N)c(C(=O)NCC2CCCO2)c2nc3ccccc3nc21 (stereo unspecified) |  | inactive: -17.6%
11 | CCOc1cc(CNCc2ccncc2)cc(Br)c1OCc1ccc(F)cc1 | active: 10 µM | 
12 | CCC(=O)N1c2ccccc2C(N(C(C)=O)c2ccccc2)CC1C (stereo unspecified) | inconclusive: 12.6 µM [inhibitor, single point] | 
13 | O=c1c2ccccc2nc2n1C(CSc1ccc(Cl)cc1)CN2 (stereo unspecified) |  | inactive: -18.2%
14 | COCc1c(C(=O)N2CCN(Cc3nc4ccccc4s3)CC2)oc2ccccc12 |  | inactive: -10.8%
15 | Cc1cccc(Nc2cc(C)nc3ccccc23)c1 | inconclusive: 31.6 µM [inhibitor, single point] | 
16 | O=C(CNC(=O)[C@@H]1Cc2ccccc2CN1)Nc1ccc2c(c1)OCCO2 |  | inactive: 15.8%
17 | Cc1ccccc1C(=O)N1N=C(c2ccc(NS(C)(=O)=O)cc2)CC1c1cccs1 (stereo unspecified) |  | inactive: 0.771%
18 | Cc1ccc(C(=O)OCC(=O)N2CCC(c3ccccc3)=N2)c(C)c1 | inconclusive: 0.501 µM [inhibitor, partial curve, poor fit] | 
19 | COC(=O)c1cccn(CC(=O)c2ccc(Cl)cc2Cl)c1=O |  | inactive: 31.6%
20 | O=C(NC1CCCCCC1)c1cccc(N2CCCC2=O)c1 | active: 25.1 µM | 
21 | COC(=O)C1=C(C)OC(N)=C(C#N)C1c1ccccc1 (stereo unspecified) | inconclusive: 20 µM [inhibitor, partial curve, poor fit] | 
22 | CCC(=O)Nc1ccc(Cl)c(NC(=O)c2ccc(Br)o2)c1 | inconclusive: 11.2 µM [inhibitor, partial curve] | 
23 | c1ccc(-c2c(-c3ccccc3)n(Cc3ccco3)c3ncnc(NCCCn4ccnc4)c23)cc1 | inconclusive: 10 µM [inhibitor, partial curve] | 
24 | COc1ccc(OC)c(NC(=O)c2cccc(C)c2[N+](=O)[O-])c1 | inconclusive: 14.1 µM [inhibitor, single point] | 
25 | C=CCc1ccc(OCCCN2CCCC(C)C2)c(OC)c1 (stereo unspecified) | active: 25.1 µM | 
26 | Cc1ccnc(NC(=O)c2cccc([N+](=O)[O-])c2C)c1 |  | inactive: -12%

Row | Compound | Potency | activity change, negative = inhibition
27 | CCNCCNC(=O)c1c(O)c2cccc3c2n(c1=O)CCC3 | inconclusive: 31.6 µM [inhibitor, single point] | 
28 | COc1ccc(NC(=O)CCn2c(=S)[nH]c3ccccc3c2=O)cc1 |  | inactive: -9.29%
29 | COC(=O)c1cc(OC)c(OC)cc1NC(=O)c1cccc(C)c1 | inconclusive: 11.2 µM [inhibitor, partial curve] | 
30 | O=C(Nc1cccc(S(=O)(=O)NC2=NCCC2)c1)c1cnc(Cl)c(Cl)c1 | inconclusive: 31.6 µM [inhibitor, single point] | 
31 | N#Cc1c(NC(=O)c2ccc(N3CCOCC3)c([N+](=O)[O-])c2)sc2c1CCCC2 | inconclusive: 2.51 µM [inhibitor, single point] | 
32 | Cc1ccc(S(=O)(=O)N2CCN(c3nccnc3C#N)CC2)cc1 |  | inactive: -14.2%
33 | CNc1cncc(C(=O)O)c1 |  | inactive: 9.68%
34 | O=C(N/N=C/c1ccc([N+](=O)[O-])s1)c1ccccc1Br | active: 11.2 µM | 
35 | Cc1ccccc1CN(C)CC(=O)Nc1ccccc1-c1ccccc1 | inconclusive: 31.6 µM [inhibitor, single point] | 
36 | CCOc1ccccc1NC(=O)NCc1ccco1 | inconclusive: 11.2 µM [inhibitor, partial curve] | 
37 | CC(=NNc1nc2ccccc2s1)c1ccncn1 | inconclusive: 0.562 µM [inhibitor, full curve] | 
38 | Cc1nc2ccccc2c2oc(C(=O)NCCCN3CC(C)CC(C)C3)cc12 (stereo unspecified) | inconclusive: 15.8 µM [inhibitor, single point] | 
39 | CCC(CO)n1c(SCc2cc(=O)oc3cc(C)ccc23)nc2ccccc2c1=O (stereo unspecified) | inconclusive: 10 µM [inhibitor, partial curve, poor fit] | 
40 | COc1ccccc1NC(=O)NC1CCCCCCC1 |  | inactive: -9.36%
41 | Cc1ncc(CO)c(/C=N/NC(=O)c2ccc(O)cc2)c1O |  | inactive: -15%
42 | Nc1cc(Cl)c2nonc2c1[N+](=O)[O-] | active: 4.47 µM | 
43 | O=C(NC(=O)c1cc([N+](=O)[O-])ccc1Cl)C1=C(N2CCCC2)COC1=O | inconclusive: 4.47 µM [inhibitor, single point] | 
44 | COc1ccc(C(=O)N2CCCC(N3CCN(c4ccccc4OC)CC3)C2)c(OC)n1 (stereo unspecified) |  | inactive: -15.4%
45 | CCOC(=O)/C=C/S(=O)(=O)c1ccc(NC(C)=O)cc1 | inconclusive: 22.4 µM [inhibitor, single point] | 
46 | CC(=O)Oc1cc2c3c(c1)/C(=C1/SC(=S)NC1=O)C(=O)N3C(C)(C)C=C2C |  | inactive: 12.9%
47 | COc1ccc(F)cc1CN1CCN(C(=O)c2ccc(S(=O)(=O)N3CCCCCC3)cc2)CC1 | inconclusive: 7.08 µM [inhibitor, partial curve] | 
48 | CCc1ccc(Nc2cc(C)nc3ncnn23)cc1 |  | inactive: -6.4%
49 | Cn1c(N)c(C(=O)COC(=O)CSc2ccccc2)c(=O)n(C)c1=O |  | inactive: 2.2%
50 | COCCN1Cc2cccc(C(=O)Nc3cccc(-c4nc5ccccc5[nH]4)c3)c2C1=O | inconclusive: 11.2 µM [inhibitor, single point] | 
51 | O=C(Nc1ccc(N2CCCC2)c(Cl)c1)c1cccs1 | inconclusive: 25.1 µM [inhibitor, single point] | 
52 | C=CC[C@@H](CC(=O)N(CCO)Cc1ccccc1)C(=O)NCCOC(=O)[C@@H](CC=C)Cc1ccc(F)cc1 | inconclusive: 12.6 µM [inhibitor, partial curve] | 

Row | Compound | Potency | activity change, negative = inhibition
53 | Cc1ccccc1Nc1nc(N)nc(CSc2nc3ccccc3c(=O)n2C)n1 | inconclusive: 5.62 µM [inhibitor, single point] | 
54 | CC(=O)c1ccc(-c2cccc(-c3nc4ccccn4c3NC3CCCCC3)c2)cc1 | active: 10 µM | 
55 | COC(=O)c1ccccc1NC(=O)C1CC(=O)N(c2ccc(C)c(C)c2)C1 (stereo unspecified) |  | inactive: -8.56%
56 | CCc1ccccc1NC(=O)CCCSc1nc2ccccc2s1 |  | inactive: -19.9%
57 | Cc1ccc(OCc2ccc(C(=O)NCC3CCCO3)cc2)cc1C (stereo unspecified) | inconclusive: 12.6 µM [inhibitor, single point] | 
58 | CC1Oc2ccccc2N(CC(=O)Nc2ccc3c(c2)OCO3)C1=O (stereo unspecified) |  | inactive: 11%
59 | O=C(COC(=O)c1cc([N+](=O)[O-])ccc1N1CCOCC1)Nc1ccc(Cl)cn1 | inconclusive: 1.12 µM [inhibitor, full curve] | 
60 | C=CCn1c(=S)[nH]c2cc(C(=O)Nc3ccc(F)cc3)ccc2c1=O | inconclusive: 10 µM [inhibitor, partial curve] | 
61 | CCN1CCN(Cc2ccc(NC(=O)c3ccc(C)c(NC(=O)N4CCNC4=O)c3)cc2C(F)(F)F)CC1 | inactive and inconclusive: 11.2 µM [inhibitor, partial curve] | 
62 | CC(=O)C1C(c2ccc(Cl)cc2)c2c(noc2C)CC1(C)O (stereo unspecified) |  | inactive: -7.01%
63 | CC(C)(C)c1ccc(NC(=O)COc2ccc(-n3ccnc3)cc2)cc1 | active: 5.01 µM | 
64 | O=C(O)c1cc(=O)c2ccccc2[nH]1 |  | inactive: 20%
65 | O=C(Nc1cc2c(cc1Br)OCCCO2)c1ccccc1 |  | inactive: 8.7%
66 | Cc1ccc(N2CC(O)=C(c3nc4ccccc4c(=O)[nH]3)C2=N)cc1C | inconclusive: 3.98 µM [inhibitor, full curve] | 
67 | Cn1c(SCC(=O)Nc2cccc(C(=O)O)c2)nnc1-c1cc2cc(Br)ccc2o1 | inconclusive: 7.08 µM [inhibitor, partial curve] | 
68 | CCOc1cc(OCC)cc(C(=O)Nc2cccnc2)c1 | inconclusive: 2.24 µM [inhibitor, full curve] | 
69 | CCNC(=S)Nc1ccc2c(c1)oc1ccccc12 | inconclusive: 22.4 µM [inhibitor, single point] | 
70 | O=C1NC2(CCCCCC2)C(=O)N1Cc1cccc([N+](=O)[O-])c1 |  | inactive: -16.6%
71 | CN(C(=O)c1cccc(NC(=O)Cc2ccc(NC(=O)C3CCCN(C(=O)C4CCC4)C3)cc2)c1)C1CCCC1 (stereo unspecified) | inconclusive: 3.16 µM [inhibitor, partial curve] | 
72 | CC1CCN(S(=O)(=O)c2ccc(C(C)C)cc2)CC1 |  | inactive: -8.6%
73 | COc1cc(OC)c2c(C)cc(=O)oc2c1C(CCN1CCOCC1)c1ccc2c(c1)OCO2 (stereo unspecified) | inconclusive: 31.6 µM [inhibitor, single point] | 
74 | O=C(N/N=C/c1ccc(OC(=O)c2ccccc2)cc1)c1cccc(O)c1 |  | inactive: 9.27%
75 | CC/C=C(\NC(C)=O)c1ccccc1 |  | inactive: 0.744%
76 | COc1ccc(OC)c(Nc2nc(-c3sc(N)nc3C)cs2)c1 | inconclusive: 8.91 µM [inhibitor, partial curve, poor fit] | 
